For 30 molecules, activity change, negative = inhibition results are on record in PubChem BioAssay AID1745853 (National Center for Advancing Translational Sciences (NCATS), 2022).

This is one part of the list. These are further read-outs of the screen, such as a control signal, another cell line or another target. No call is given for them.

Common to all, as to test: Primary Screen for Target Class Profiling of Small Molecule Inhibitors of Methyltransferases
Test [1] has as its target Glycine N-methyltransferase (Homo sapiens) (UniProt Q14749). To be noted: purified enzyme, MTase-Glo SAH luminescence; measured here: GNMT inhibition; at 40 µM; stronger effect = lower value. The method in brief: (§1)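 Each enzyme was assayed with SAM and its substrate. SAH formation detected by MTase-Glo luminescence; single-point 40 uM screen[…].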
The target of test [2] is Guanidinoacetate N-methyltransferase (Homo sapiens) (UniProt Q14353). The note with it: purified enzyme, MTase-Glo SAH luminescence; measured here: GAMT inhibition; at 40 µM; stronger effect = lower value. The method in brief: as §1
Test [3] addresses Histamine N-methyltransferase (Homo sapiens) (UniProt P50135). The note with it: purified enzyme, MTase-Glo SAH luminescence; measured here: HNMT inhibition; at 40 µM; stronger effect = lower value. The method in brief:
as §1

The target in test [4] is Nicotinamide N-methyltransferase (Homo sapiens) (UniProt P40261). To be noted: purified enzyme, MTase-Glo SAH luminescence; measured here: NNMT inhibition; at 40 µM; stronger effect = lower value. The method in brief:
as §1

The target in test [5] is Phenylethanolamine N-methyltransferase (Homo sapiens) (UniProt P11086). The note with it: purified enzyme, MTase-Glo SAH luminescence; measured here: PNMT inhibition; at 40 µM; stronger effect = lower value. The method in brief:
as §1
On the % scale 0 is the no-effect control and ±100 the full control effect.

As for `COCc1nc2nc(-c3ccccc3)c(-c3ccc(O)c(F)c3)cc2n1C`, the activity change, negative = inhibition in test [1] was -66.7%; in test [2], -51.2%; in test [3] it was -72.4%; in test [4], -70.5%; in test [5], -31.4%.

Consider `CCOc1cc(CC(=O)N[C@@H](CC(C)C)c2ccccc2N2CCCCC2)ccc1C(=O)O`, for which the activity change, negative = inhibition in test [2] was -10.1%; in test [4], -31.3%; in test [5], -3.66%.

As to `CCc1ccccc1N1C(=O)c2c(C(=O)OC)ncn2CC1(C)C(=O)NC1CCCC1` (stereo not drawn), the activity change, negative = inhibition is -1.15% in test [1]; -3.65% in test [2]; -8.07% in test [3]; -0.804% in test [4]; -4.34% in test [5].

With `O=C(c1ccc2c(c1)[nH]c(=O)n2C1CCC(O)CC1)N1CCOCC(O)C1` (stereo not drawn), the activity change, negative = inhibition was -3.5% in test [1]; -9.3% in test [2]; -3.4% in test [3]; -13.4% in test [4]; 9.99% in test [5].

As to `CNC(=O)c1noc(CNC(=O)C(c2cccc(F)c2)N(C)C)n1` (stereo not drawn), the activity change, negative = inhibition in test [1] is -4.15%; in test [2], 0.953%; in test [3] it was 0.502%; in test [4], -1.34%; in test [5], -0.625%.

Take `CC(=O)N1CCCCN(C(=O)c2cc(-c3ccccc3C(F)(F)F)nc3c2cnn3C)C1`: the activity change, negative = inhibition in test [1] is -2.44%; in test [2], -4.86%; in test [3], -1.36%; in test [4], -8.33%; in test [5] it was -1.47%.

As for `OC1(CN2CCCCC2)CCN(Cc2cnn(-c3ccccc3Cl)c2)C1` (stereo not drawn), the activity change, negative = inhibition in test [1] is -4.76%; in test [2], -6.25%; in test [3] it was -19.5%; in test [4], -2.74%; in test [5], 0%.

As for `Cc1ccc(C(C(=O)O)N2CCC(C(=O)N3CCCC3)CC2)c(C)c1` (stereo not drawn), the activity change, negative = inhibition in test [1] is -4.92%; in test [2], -5.6%; in test [3], -1.6%; in test [4], -9.06%; in test [5] it was -7.68%.

Take `Cc1ccc(C(=O)N2CCN(c3ccc([N+](=O)[O-])cc3)CC2)cc1Cl`: the activity change, negative = inhibition is -2.52% in test [1]; -0.689% in test [2]; -1.57% in test [3]; -18.1% in test [4]; -5.27% in test [5].

`COc1ncccc1CNC[C@H]1O[C@@H]2C[C@@H](CC(=O)N3CCOCC3)O[C@@H]2[C@@H]1O`: the activity change, negative = inhibition in test [1] is -2.16%; in test [2] it was -3.84%; in test [3], 0.58%; in test [4] it was -1.75%; in test [5] it was -1.32%.

For the molecule `CCC(C)NC(=O)c1ccc2c(=O)n(C)c3nnc(SCc4cccc(Cl)c4)n3c2c1` (stereo not drawn), the activity change, negative = inhibition was determined as 10% in test [1]; 1.47% in test [2]; 9.36% in test [3]; 11.5% in test [4]; 8.67% in test [5].

With `CC1c2cccn2CCN1C(=O)Nc1ccc(Br)cc1F` (stereo not drawn), the activity change, negative = inhibition in test [1] is -0.623%; in test [2], 0%; in test [3], 6.81%; in test [4], -9.95%; in test [5], 5.1%.

For `Cc1ccc(N2C(=O)CSc3c(c4ccccc4n3C)C2C(=O)NCCCOC(C)C)cc1Cl` (stereo not drawn), the activity change, negative = inhibition in test [1] was -4.4%; in test [2], 5.1%; in test [3], 1.65%; in test [4] it was -2.98%; in test [5] it was 0.232%.

Consider `CC(C)OCCCn1c(=O)c2ccccc2n2c(CCC(=O)NCCC3=CCCCC3)nnc12`, for which the activity change, negative = inhibition in test [1] is -9.79%; in test [2], -0.232%; in test [3], -10.4%; in test [4], -0.78%; in test [5], -13.7%.

On to `CCC(C)NC(=O)c1ccc2c(=O)n(C(C)C)c3nn(CC(=O)c4ccc(Cl)cc4)c(=O)n3c2c1` (stereo not drawn), for which the activity change, negative = inhibition in test [1] was 6%; in test [2], 0.199%; in test [3], 4.46%; in test [4] it was 7.86%; in test [5], 6.35%.

As for `Cn1ccnc1CNC[C@H]1Cn2cc(-c3ccccc3)nc2CO1`, the activity change, negative = inhibition is -2.51% in test [1]; 0.04% in test [2]; -2.24% in test [3]; 0.867% in test [4]; -0.887% in test [5].

Regarding `CCC(C(=O)NCc1ccc(C)cc1)n1ccc2cc(S(=O)(=O)N3CCCCC3)ccc21` (stereo not drawn), the activity change, negative = inhibition in test [1] turned out to be 2.29%; in test [2], 0%; in test [3] it was 6.01%; in test [4], 2.25%; in test [5] it was 3.84%.

Turning to `CC(C)S(=O)(=O)N(C)Cc1cccc(N2CCN(C(=O)c3c(Cl)cccc3Cl)CC2)c1F`, the activity change, negative = inhibition in test [1] is -6.39%; in test [2], -4.47%; in test [3], -1.06%; in test [4] it was -15.7%; in test [5], 1.41%.

For `CCc1ccc(Cc2ccc3c(c2)[C@]2(OC3)O[C@H](CO)[C@@H](O)[C@H](O)[C@H]2O)cc1`, the activity change, negative = inhibition in test [1] was 6.58%; in test [2], 2.71%; in test [3] it was 14.1%; in test [4], -2.64%; in test [5] it was 8.12%.

For `CC1(CCOC2OC(CO)C(O)C(O)C2O)CCC23OC2(C1)C(O)CC1C(C)(C(=O)O)CCCC13C` (stereo not drawn), the activity change, negative = inhibition was 4.94% in test [1]; 1.01% in test [2]; 5.42% in test [3]; -10.4% in test [4]; 3.95% in test [5].

Consider `COc1cc(/C=C/C(=O)O[C@H]2[C@H](OC(=O)/C=C/c3cc(OC)c(O)c(OC)c3)O[C@H](CO[C@@H]3O[C@H](CO)[C@@H](O)[C@H](O)[C@H]3O)[C@@H](O)[C@@H]2O)ccc1O`, for which the activity change, negative = inhibition in test [1] is -4.31%; in test [2] it was -4.69%; in test [3] it was 2.45%; in test [4], -16.1%; in test [5], -11.1%.

Take `Cn1c(=O)n(-c2ccc(C(C)(C)C#N)cc2)c2c3cc(-c4cnc5ccccc5c4)ccc3ncc21`: the activity change, negative = inhibition in test [1] is -7.01%; in test [2] it was -17.7%; in test [3] it was 5.07%; in test [4], -21.7%; in test [5], -7.34%.

As to `COC(=O)COc1cc2oc(=O)cc(-c3ccccc3)c2cc1Cl`, the activity change, negative = inhibition in test [1] was 0.619%; in test [2] it was 5.03%; in test [3], 4.72%; in test [4], -0.734%; in test [5], 0.696%.

With `O=S(=O)(c1ccccc1)N1CCCC(CN2CCCC2)CC1` (stereo not drawn), the activity change, negative = inhibition is -8.62% in test [1]; -6.86% in test [2]; -30.7% in test [3]; -11.6% in test [4]; -11.9% in test [5].

`CC1(C(=O)NC2CCCCCC2)Cn2nc(-c3ccco3)cc2C(=O)N1Cc1cccc(F)c1` (stereo not drawn): the activity change, negative = inhibition in test [1] was -7.16%; in test [2] it was -2.33%; in test [3] it was 0.486%; in test [4], -15.4%; in test [5], -1.58%.

Consider `COc1ccc2c(c1)c(CN1CCOCCNC(=O)CC1)cn2C`, for which the activity change, negative = inhibition in test [1] was -3.6%; in test [2], -3.04%; in test [3] it was 0.473%; in test [4] it was -10.3%; in test [5], 52.3%.

As to `NC(=O)NCC(=O)N1CCC2(CCCN(CCCc3ccccc3)C2)C1` (stereo not drawn), the activity change, negative = inhibition was -5.02% in test [1]; -4.69% in test [2]; -2.26% in test [3]; -11.5% in test [4]; 5.92% in test [5].

In the case of `COc1cccc(CN2C(=O)c3ccc(-c4ccco4)n3CC2(C)C(=O)NC2CCCCC2)c1` (stereo not drawn), the activity change, negative = inhibition in test [1] was -4.92%; in test [2] it was 2.38%; in test [3] it was -1.11%; in test [4], -5.8%; in test [5], -6.31%.

`CC(=O)O[C@@]1(C)[C@@H]2CC(=C(C)C)C(=O)C[C@@]2(C)CC[C@H]1OC(=O)C1(C)OC1C` (stereo partly drawn): the activity change, negative = inhibition was -0.979% in test [1]; -2.71% in test [2]; 9.46% in test [3]; -17.5% in test [4]; -11.4% in test [5].

As to `COc1cc(/C=C/C(=O)O[C@@H]2C[C@](O)(C(=O)O)C[C@@H](O)[C@H]2O)ccc1O`, the activity change, negative = inhibition is -0.421% in test [1]; 1.67% in test [2]; 4.25% in test [3]; -7.34% in test [4]; -3.56% in test [5].
